# Among all 230,000 compounds or so, about 3,600 (1.6%) were called active. The inconclusive results got no clear call from the source; some entries with a clear call stand among them for comparison. Calls come from the whole dose curve; as a rule, active = well fitted inhibition curve with a large enough effect (not every such curve was filed as active); inconclusive = small, poorly fitted or top-dose-only effect, or another doubt; inactive = no such curve, though single readings can be large or run the other way. Potencies beside an inconclusive call are fits to weak or partial responses and may not hold up.
# Target: Lysine-specific demethylase 4E (Homo sapiens) (UniProt B2RXH2)
# Experiment: qHTS Assay for Inhibitors of Human Jumonji Domain Containing 2E (JMJD2E)
# Conditions: JMJD2E catalytic domain, FDH-coupled NADH fluorescence (FDH is formaldehyde dehydrogenase); series mostly up to 57.1 µM; activity change, negative = inhibition: at the top concentration
# Note: nearly all actives have a fitted effect of over 50% in size.
# Potency is the fitted concentration of half-maximal effect; tags give direction and shape of the fitted curve.
# 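Throughout, for activity change, negative = inhibition: 0% = wells with enzyme and -100% = buffer wells without enzyme.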
# Sequence of UniProt B2RXH2 (B2RXH2 whole entry, looked up, the tested form may be a part): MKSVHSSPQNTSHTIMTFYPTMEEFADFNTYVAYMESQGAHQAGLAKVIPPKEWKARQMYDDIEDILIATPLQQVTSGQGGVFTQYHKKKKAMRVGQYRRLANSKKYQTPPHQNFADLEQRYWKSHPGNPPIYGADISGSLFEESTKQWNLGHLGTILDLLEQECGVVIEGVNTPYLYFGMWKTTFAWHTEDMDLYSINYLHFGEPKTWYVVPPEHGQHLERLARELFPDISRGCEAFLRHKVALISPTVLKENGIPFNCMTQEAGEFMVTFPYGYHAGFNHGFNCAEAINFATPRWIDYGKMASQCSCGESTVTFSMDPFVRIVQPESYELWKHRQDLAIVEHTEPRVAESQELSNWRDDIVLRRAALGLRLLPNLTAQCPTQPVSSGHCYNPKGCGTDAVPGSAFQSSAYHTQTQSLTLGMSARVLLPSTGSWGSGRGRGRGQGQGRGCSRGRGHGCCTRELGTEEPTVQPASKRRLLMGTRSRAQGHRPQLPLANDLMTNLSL
Structure (SMILES),Potency,"activity change, negative = inhibition"
O=C(O)CCc1nn2c3ccccc3n(CC(=O)c3cccs3)c2nc1=O,"inconclusive: 28.2 µM [inhibitor, partial curve]",
Cc1cc(C)n(CCc2nc(-c3ccco3)cs2)n1,,inactive: -17.9%
CCc1nnc(NC(=O)CSc2nnc(-c3cc4ccccc4cc3O)n2CC)s1,,inactive: -7.82%
COc1ccc(NC(=O)c2ccc(-c3ccc(C)c4ccccc34)o2)cc1,,inactive: -3.24%
Cc1ccccc1-n1c(SCC(=O)Nc2ccccc2)nc2nc3c(cc2c1=O)CCCC3,"inconclusive: 39.8 µM [inhibitor, single point]",
Cc1cccc(C(=O)N2CCN(c3ccc(N4CCOCC4)nn3)CC2)c1,"inconclusive: 28.2 µM [inhibitor, partial curve]",
O=C(CCNS(=O)(=O)c1ccc(Br)cc1)NC1CCCCC1,,inactive: -1.7%
C=CCn1c(SCc2nc3ccccc3c(=O)[nH]2)nc2scc(C3CC3)c2c1=O,,inactive: 4.17%
Cc1ccc(N(CC(=O)N2CC(=O)Nc3ccccc32)S(=O)(=O)c2ccc3c(c2)OCCO3)cc1,,inactive: -4.85%
CSc1cccc(NC(=O)COc2ccccc2)c1,,inactive: -3.85%
CC1(C)CC(=O)C2=C(C1)NC(SCC(N)=O)=C(C#N)C21CCCCC1,"inconclusive: 35.5 µM [inhibitor, single point]",
O=C(COC(=O)c1ccccc1NC(=O)c1ccco1)Nc1ncc(Cl)cc1Cl,"inconclusive: 31.6 µM [inhibitor, single point]",
Cc1ccc(Oc2ncccc2NC(=O)CC2(CC(=O)O)CCCC2)c2c1CCC2,"inconclusive: 4.47 µM [inhibitor, full curve]",
COc1ccc(/C=N/Nc2nnc(-c3ncc[nH]3)c3ccccc23)cc1,,inactive: -4.18%
COc1ccc(-c2cc(C(F)(F)F)c(C#N)c(SCC(=O)Nc3ccccc3C#N)n2)cc1,"inconclusive: 22.4 µM [inhibitor, partial curve]",
O=C(Cn1cnc2ccccc21)N/N=C/c1cccnc1,,inactive: -0.455%
Cc1cc(C(C)(C)C)ccc1OCCOCCN1CCCC1,"inconclusive: 28.2 µM [inhibitor, single point]",
CNC(=S)NCCc1ccc(OC)cc1,"inconclusive: 39.8 µM [inhibitor, single point]",
COc1ccc(C2Nc3ccccc3C(=O)N2NC(=O)c2ccccc2)cc1OC (stereo unspecified),"inconclusive: 28.2 µM [inhibitor, partial curve]",
CCOC(=O)c1sc(C)c2c1NC(C)(c1cccs1)NC2=O (stereo unspecified),"inconclusive: 31.6 µM [inhibitor, partial curve]",
O=C1CSC(c2ccccc2[N+](=O)[O-])N1c1ccc(O)cc1 (stereo unspecified),"inconclusive: 28.2 µM [inhibitor, single point]",
Cc1ccc(N2C(=O)C3C4C=CC(CNC(=S)N5CCN(c6ccccn6)CC5)(O4)C3C2=O)cc1 (stereo unspecified),"inconclusive: 20 µM [inhibitor, partial curve]",
O=C(OC1CCc2ccccc2C1=O)c1ccccc1O (stereo unspecified),"inconclusive: 39.8 µM [inhibitor, single point]",

Structure (SMILES),Potency,"activity change, negative = inhibition"
O=C(O)CCCCCn1c(SCc2cc(=O)n3ccccc3n2)nc2ccsc2c1=O,,inactive: 7.97%
O=[N+]([O-])c1ccc(N=Cc2sc3ccccc3c2O)cc1,"inconclusive: 35.5 µM [inhibitor, single point]",
Cc1ccccc1-c1nc(-c2ccc(NC(=O)c3ccc(Br)o3)cc2)no1,"inconclusive: 31.6 µM [inhibitor, single point]",
O=C1C(c2ccncc2)N(CCC2=CCCCC2)C(=O)CN1C1CCCCC1 (stereo unspecified),"inconclusive: 25.1 µM [inhibitor, partial curve]",
O=C(NCc1cccs1)c1ccc2c(c1)OCCO2,,inactive: 7.34%
COc1ccc(-c2noc(-c3ccoc3C)n2)cc1OC,"inconclusive: 31.6 µM [inhibitor, single point]",
S=c1[nH]nc(COc2ccccc2)n1/N=C/c1ccccn1,,inactive: -3.35%
CC(=O)O/N=C/c1c(NCc2ccccc2)nc2c(C)cccn2c1=O,"inconclusive: 35.5 µM [inhibitor, single point]",
COc1cc(NC(=O)c2ccc(C(C)(C)C)cc2)c(OC)cc1NC(=O)CN1CCCCC1,"inconclusive: 25.1 µM [inhibitor, single point]",
FC(F)(F)c1cccc(N2CCN(Cc3ccoc3)CC2)c1,"inconclusive: 25.1 µM [inhibitor, single point]",
COc1ccccc1CN(Cc1cc2c(C)ccc(C)c2[nH]c1=O)Cc1nnnn1Cc1ccco1,"inconclusive: 39.8 µM [inhibitor, single point]",
O/N=C/c1ccc2cccc(O)c2n1,active: 31.6 µM,
O=c1c2ccccc2nc(/C=C/c2ccccc2)n1CCc1ccccc1,,inactive: -20.7%
O=C(CSc1nnnn1C1CCCC1)Nc1ccccc1F,,inactive: 1.54%
c1ccc(-c2nc3c4ccccc4ccn3c2CN2CCCCC2)cc1,"inconclusive: 35.5 µM [inhibitor, single point]",
CCCC(c1nnnn1CCc1ccccc1)N1CCC(C(N)=O)CC1 (stereo unspecified),,inactive: 0.721%
COc1ccc(OC)c(/C=N\NC(=O)c2ccc(=O)n(C)c2)c1,"inconclusive: 35.5 µM [inhibitor, partial curve]",
CCOc1ccc(-c2csc(NC(=O)c3ccc(S(=O)(=O)N4CCc5ccccc5C4)cc3)n2)cc1,"inconclusive: 28.2 µM [inhibitor, single point]",
Cc1ccc(OS(=O)(=O)c2ccc(-c3csc(C)n3)s2)c(C)c1,"inconclusive: 31.6 µM [inhibitor, single point]",
CC(Oc1ccc(Cl)cc1Cl)C(=O)Nc1ccc2oc(-c3ccncc3)nc2c1 (stereo unspecified),"inconclusive: 10 µM [inhibitor, partial curve]",
CCCn1c(N)c(C(c2ccc(C(=O)OC)cc2)N2CCN(c3ccccc3)CC2)c(=O)[nH]c1=O (stereo unspecified),"inconclusive: 28.2 µM [inhibitor, single point]",
Cc1cccc(-n2ncc3c(NCc4ccc5c(c4)OCO5)ncnc32)c1,"inconclusive: 39.8 µM [inhibitor, single point]",
Cc1cc(C(=O)N/N=C/c2cc(Cl)cc([N+](=O)[O-])c2O)c2ccccc2n1,active: 5.62 µM,

# Source: PubChem BioAssay AID2147 (National Center for Advancing Translational Sciences (NCATS), 2009)
